Test results: the GPR68 mutational scans of Howard et al. (2025)
The least precise scores are not listed. Two further conditions of the source, in which the scores hardly spread, are not listed. Read del as a deletion of the residues named and ins as an insertion between two positions. For part of these data: How much ogerin was present is not stated here.

B1: GPR68, Q15743 (parent)
chain: MGNITADNSSMSCTIDHTIHQTLAPVVYVTVLVVGFPANCLSLYFGYLQIKARNELGVYLCNLTVADLFYICSLPFWLQYVLQHDNWSHGDLSCQVCGILLYENIYISVGFLCCISVDRYLAVAHPFRFHQFRTLKAAVGVSVVIWAKELLTSIYFLMHEEVIEDENQHRVCFEHYPIQAWQRAINYYRFLVGFLFPICLLLASYQGILRAVRRSHGTQKSRKDQIQRLVLSTVVIFLACFLPYHVLLLVRSVWEASCDFAKGVFNAYHFSLLLTSFNCVADPVLYCFVSETTHRDLARLRGACLAFLTCSRTGRAREAYPLGAPEASGKSGAQGEEPELLTKLHPAFQTPNSPGSGGFPTGRLA

Tests used:
[1] = variants of: B1; assay: cAMP reporter score (Enrich2 score, wild type = 0); higher = more signal; HEK293T, FACS bins
[2] = variants of: B1; assay: surface expression score (Enrich2 score, wild type = 0); higher = more signal; HEK293T, FACS bins

| Variant | cAMP reporter score ([1]; pH 5.5) | cAMP reporter score ([1]; pH 6) | cAMP reporter score ([1]; pH 6, modulator: ogerin) | cAMP reporter score ([1]; pH 6.5, modulator: ogerin) | surface expression score [2] |
| --- | --- | --- | --- | --- | --- |
| Q334del | 0.26 | 0.347 | 0.771 | 0.974 | -0.554 |
| E326_A327insG | 0.154 | -0.38 | 0.316 | -0.107 | 0.972 |
| S328_G329del | 1.28 | -0.105 | 1.16 | 0.145 | 0.145 |
| A324_P325insG | -0.034 | 1.38 | 0.703 | 1.63 | -1.03 |
| G323_A324insGS | 0.299 | -0.559 | -0.496 | 0.295 | 0.058 |
| S328del | 0.22 | 0.366 | 0.084 | 1.38 | 0.782 |
| G335del | -0.461 |  | -0.391 |  | 0.162 |
| P325K | 0.99 | 0.65 | 1.21 | 0.758 | 0.433 |
| P325I | 0.499 | 0.653 | 0.683 | 0.518 | 1.53 |
| P325H | -0.821 | 0.676 | -1.12 |  | -0.632 |
| P325D | 0.841 | -0.355 | 0.174 | 0.186 | 0.678 |
| P325L | 0.585 |  | 0.902 | 0.669 | 0.901 |
| P325V | 0.367 |  | 0.598 | 0.678 | 0.826 |
| P325Q | 0.277 | -0.045 | -0.026 | -0.145 | 0.309 |
| P325E | 0.265 |  | 0.303 | 0.928 | 0.067 |
| P325T | 0.167 | 0.03 | 1.23 | 0.465 | 0.469 |

| Variant | cAMP reporter score ([1]; pH 5.5) | cAMP reporter score ([1]; pH 6) | cAMP reporter score ([1]; pH 6, modulator: ogerin) | cAMP reporter score ([1]; pH 6.5, modulator: ogerin) | surface expression score [2] |
| --- | --- | --- | --- | --- | --- |
| P325M | 1.37 |  | 0.9 | 0.825 | 1.45 |
| P325R | 0.908 | 1.51 | 1.54 | 0.349 | -0.356 |
| P325W | 1.23 | 0.056 | 0.805 | 0.129 | -0.05 |
| P325A | 0.974 | 0.236 | 1.21 | 0.056 | 0.431 |
| P325F | 0.29 | 0.216 | 0.267 | -0.02 | 0.106 |
| P325G | 0.483 |  | 0.462 | 0.636 | -0.237 |
| P325N | -0.395 | -0.312 | 0.818 |  | 2.81 |
| P325Y | 2.02 | 2.26 | 1.09 |  | 0.126 |
| P325S | -0.378 | -1.54 | -0.498 | -1.02 | -0.474 |
| P325C | 0.427 | 0.134 | 0.475 | -0.212 | -0.184 |
| A327I | 0.662 | 0.355 | 0.33 | 0.049 | 0.266 |
| A327E | 1.2 | 1.53 | 1.06 | 2.06 | 1.52 |
| A327H | 0.858 | -1.45 | 0 | -0.413 | 0.685 |
| A327Y | 0.176 | 0.174 | 0.488 | -0.19 | -0.505 |
| A327K | 0.241 | 0.5 | 0.835 | 0.646 | -0.391 |
| A327D | 0.19 | 0.246 | -0.068 | -0.619 | -0.101 |
